This passage reports activity change, negative = inhibition results from PubChem BioAssay AID1745853 (National Center for Advancing Translational Sciences (NCATS), 2022).

Common to all, as to assay: Primary Screen for Target Class Profiling of Small Molecule Inhibitors of Methyltransferases
In experiment [1] the target is Glycine N-methyltransferase (Homo sapiens) (UniProt Q14749). The note with it: purified enzyme, MTase-Glo SAH luminescence; measured here: GNMT inhibition; at 40 µM; stronger effect = lower value. The gist of the method:
(§1)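 Each enzyme was reacted with SAM and its substrate, with compounds tested once at 40 uM; SAH formed was read by MTase-Glo luminescence.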

Experiment [2] concerns the target Guanidinoacetate N-methyltransferase (Homo sapiens) (UniProt Q14353). Particulars: purified enzyme, MTase-Glo SAH luminescence; measured here: GAMT inhibition; at 40 µM; stronger effect = lower value. The method, boiled down: as §1
Experiment [3] concerns the target Histamine N-methyltransferase (Homo sapiens) (UniProt P50135). Particulars: purified enzyme, MTase-Glo SAH luminescence; measured here: HNMT inhibition; at 40 µM; stronger effect = lower value. The method, boiled down:
as §1

For experiment [4], the target named is Nicotinamide N-methyltransferase (Homo sapiens) (UniProt P40261). Particulars: purified enzyme, MTase-Glo SAH luminescence; measured here: NNMT inhibition; at 40 µM; stronger effect = lower value. The gist of the method: as §1
Experiment [5] deals with Phenylethanolamine N-methyltransferase (Homo sapiens) (UniProt P11086). Particulars: purified enzyme, MTase-Glo SAH luminescence; measured here: PNMT inhibition; at 40 µM; stronger effect = lower value. The gist of the method: as §1

Molecules are shown by their SMILES. The list shows a part of the results. Further columns of the screen follow, without active or inactive calls.
% is scaled to controls: 0 for no effect and ±100 for the full control effect.

On to `CC(C)Cn1c(=O)c2ccc(C(=O)NC3CCCC3)cc2n2c(=O)n(CC(=O)Nc3ccccc3)nc12`, for which the activity change, negative = inhibition in experiment [1] turned out to be 5.47%; in experiment [2], 1.35%; in experiment [3], 6.24%; in experiment [4], 7.33%; in experiment [5], 5.34%.

Take `CN[C@@H](C)C(=O)N1CCC(c2cc(N3CCOCC3)nc(C)n2)CC1`: the activity change, negative = inhibition in experiment [1] was -3%; in experiment [2], -3.42%; in experiment [3] it was -0.367%; in experiment [4], -5.46%; in experiment [5], -1.54%.

As for `NC(=O)[C@H](CC1CCCCC1)NC(=O)[C@@H]1CN(C(=O)Nc2ccccc2)CCN1S(=O)(=O)c1ccccc1`, the activity change, negative = inhibition in experiment [1] is -7.78%; in experiment [2], -9.89%; in experiment [3], -7.08%; in experiment [4], -19.7%; in experiment [5], 5.4%.

Consider `CC(CN1C(=O)c2nc3ccccc3n2CC1(C)C(=O)NC1CCCCC1C)c1ccccc1` (configuration not stated), for which the activity change, negative = inhibition is 1.03% in experiment [1]; 2.49% in experiment [2]; 4.27% in experiment [3]; 0.388% in experiment [4]; -1.3% in experiment [5].

For `Cc1ccc(Cl)cc1NC(=O)N1CCn2cccc2C1C(C)C` (configuration not stated), the activity change, negative = inhibition in experiment [1] came to 15.6%; in experiment [2], 2.34%; in experiment [3], 5.79%; in experiment [4], 3.35%; in experiment [5], 10%.

Take `Cc1cccc(CNC(=O)c2cc3n(n2)CC(C)(C(=O)NCCC(C)C)N(C)C3=O)c1` (configuration not stated): the activity change, negative = inhibition was -3.38% in experiment [1]; 0.66% in experiment [2]; -5.79% in experiment [3]; -0.203% in experiment [4]; -3.31% in experiment [5].

As for `COc1ccc(CC(=O)N2CCCC2C(=O)N2CCC(c3nc4ccncc4[nH]3)C2)cc1` (configuration not stated), the activity change, negative = inhibition was -1.86% in experiment [1]; -2.55% in experiment [2]; -3.56% in experiment [3]; 0.701% in experiment [4]; -1.73% in experiment [5].

Turning to `C[C@@]1(O)CCN(C(=O)c2cccc(F)c2)C[C@H]1N1CCCC1`, the activity change, negative = inhibition in experiment [1] is -7.47%; in experiment [2], -1.18%; in experiment [3], 0.549%; in experiment [4], -1.72%; in experiment [5], 1.98%.

Turning to `CCCn1c(=O)c2ccc(C(=O)NC3CCCC3)cc2n2c(=O)n(CC(=O)Nc3ccccc3CC)nc12`, the activity change, negative = inhibition in experiment [1] amounted to 5.79%; in experiment [2] it was 1.94%; in experiment [3], 11.4%; in experiment [4] it was 2.87%; in experiment [5], 2.3%.

With `CC1(C(=O)NC2CCCCC2)Cn2c(cc3ccccc32)C(=O)N1C1CCN(Cc2ccccc2)CC1` (configuration not stated), the activity change, negative = inhibition in experiment [1] was 0.562%; in experiment [2], 0.724%; in experiment [3], 0.629%; in experiment [4], 1.12%; in experiment [5] it was -2.47%.

On to `CNC(=O)c1cc(C2CC2)nc2c1c(C1CCN(C(=O)Cc3ccc(OC)cc3)CC1)nn2C`, for which the activity change, negative = inhibition was -7.81% in experiment [1]; -6.11% in experiment [2]; -2.48% in experiment [3]; -12.4% in experiment [4]; -5.16% in experiment [5].

For the compound `CC(C)c1noc(C2CCCN(S(=O)(=O)c3cccs3)CCC(=O)NCC2)n1` (configuration not stated), the activity change, negative = inhibition in experiment [1] was -3.87%; in experiment [2], -1.05%; in experiment [3], -1.14%; in experiment [4], 2.7%; in experiment [5], 2.54%.

Regarding `CC(C)N1CCN(C(=O)C2CCN(c3cnn(CC4CC4)c(=O)c3)C2)CC1` (configuration not stated), the activity change, negative = inhibition in experiment [1] is -2.33%; in experiment [2] it was -0.832%; in experiment [3], -1.98%; in experiment [4], -7.98%; in experiment [5] it was -0.932%.

Consider `CCc1cccc(NS(=O)(=O)c2cc3c(cc2C)n(C)c(=O)n3C)c1`, for which the activity change, negative = inhibition in experiment [1] was 6.52%; in experiment [2], 0%; in experiment [3], 1.52%; in experiment [4], -0.867%; in experiment [5], -3.34%.

Consider `O=C1NCc2ccccc2CC12CCCN2Cc1ccc(F)cc1F` (configuration not stated), for which the activity change, negative = inhibition in experiment [1] is -5.22%; in experiment [2] it was -5.43%; in experiment [3] it was -4.14%; in experiment [4] it was -17.8%; in experiment [5], -23.6%.

For `CCOc1cc(CNC(=O)c2cc3n(n2)CC(C)(C(=O)NCc2ccc(C)cc2)N(C)C3=O)ccc1OC` (configuration not stated), the activity change, negative = inhibition is -0.369% in experiment [1]; 3.91% in experiment [2]; 1.99% in experiment [3]; 0.483% in experiment [4]; 0.74% in experiment [5].

Consider `NC(=O)c1ccccc1Nc1ccnc(Nc2cccc(O)c2)n1`, for which the activity change, negative = inhibition in experiment [1] is -27.1%; in experiment [2] it was -5.75%; in experiment [3] it was -25.9%; in experiment [4], -51.5%; in experiment [5] it was -6.11%.

As to `CCn1cc(S(=O)(=O)N2CCC(c3noc(-c4ccncc4)n3)C2)cn1` (configuration not stated), the activity change, negative = inhibition in experiment [1] is -0.551%; in experiment [2] it was 2.44%; in experiment [3], 2.39%; in experiment [4] it was -1.94%; in experiment [5] it was 2.33%.

In the case of `O=C1Nc2ccc(-c3ccsc3)cc2C(=O)N2CCN(C(=O)CO)C[C@H]12`, the activity change, negative = inhibition in experiment [1] is -9.88%; in experiment [2], -1.09%; in experiment [3], -7.35%; in experiment [4], -1.93%; in experiment [5], -5.32%.

Turning to `COC(=O)N[C@H](C(=O)N1[C@@H]2CC[C@@H](C2)[C@H]1c1nc2ccc(-c3ccc4c(c3)C(F)(F)c3cc(-c5cnc([C@@H]6CCC7(CC7)N6C(=O)[C@@H](NC(=O)OC)C(C)C)[nH]5)ccc3-4)cc2[nH]1)C(C)C`, the activity change, negative = inhibition came to 1.53% in experiment [1] and 2.23% in experiment [3].

Take `Cc1ccc(Cn2c(=O)c3ccccc3n3c(CCC(=O)N4CCN(c5ccc(Cl)cc5)CC4)nnc23)cc1`: the activity change, negative = inhibition in experiment [1] is -6.09%; in experiment [2], -0.023%; in experiment [3] it was 10.5%; in experiment [4] it was 3.36%; in experiment [5] it was -2.71%.

For `Cc1ccc(C)c(N2C(=O)c3cc4occc4n3CC2(C)C(=O)NC2CCCCCCC2)c1` (configuration not stated), the activity change, negative = inhibition in experiment [1] was 4.53%; in experiment [2], -1%; in experiment [3], -2.23%; in experiment [4] it was 3.05%; in experiment [5], 1.69%.

For the compound `C[C@H](CN1CCCC1)C(=O)c1ccc(C(F)(F)F)cc1`, the activity change, negative = inhibition was 1.95% in experiment [1]; 7.53% in experiment [2]; 1.63% in experiment [3]; -10.5% in experiment [4]; -0.451% in experiment [5].

Take `CCCC(=O)N1Cc2ccccc2CC2(CCCN(Cc3ccccn3)C2)C1` (configuration not stated): the activity change, negative = inhibition in experiment [1] was -6.38%; in experiment [2] it was -4.34%; in experiment [3] it was -3.1%; in experiment [4], -12.6%; in experiment [5] it was -9.03%.

Turning to `CC1CCC(=O)CC(SCC(O)C(=O)O)CCC(=O)O1` (configuration not stated), the activity change, negative = inhibition in experiment [1] was -2.27%; in experiment [2] it was -8.09%; in experiment [3], 0.423%; in experiment [4], -17.6%; in experiment [5] it was -1.93%.

For the compound `CC(=O)OCC(CCn1cnc2cnc(N)nc21)COC(C)=O`, the activity change, negative = inhibition was -7.32% in experiment [1]; 1.04% in experiment [2]; -0.211% in experiment [3]; -9.17% in experiment [4]; 3.65% in experiment [5].

Regarding `O=C(Nc1nnc(-c2ccc3c(c2)OCCO3)o1)C1CCCCC1`, the activity change, negative = inhibition in experiment [1] is -3.14%; in experiment [2] it was -8.16%; in experiment [3] it was 3.21%; in experiment [4], -18.3%; in experiment [5], -2.48%.

With `NNc1nncc2ccccc12`, the activity change, negative = inhibition in experiment [1] is -16.7%; in experiment [2], 9.9%; in experiment [3] it was 0.809%; in experiment [4] it was -10.5%; in experiment [5], 1.8%.

Turning to `CC(C)CNC(=O)c1ccc2c(=O)n(C(C)C)c3nn(CC(=O)N(C)c4ccc(F)cc4)c(=O)n3c2c1`, the activity change, negative = inhibition is 2.99% in experiment [1]; 4.49% in experiment [2]; 6.01% in experiment [3]; -5.74% in experiment [4]; 0.441% in experiment [5].

For `O=C(Nc1cn[nH]c1-c1nc2ccc(CN3CCOCC3)cc2[nH]1)NC1CC1`, the activity change, negative = inhibition in experiment [1] is -6.29%; in experiment [2] it was -1.46%; in experiment [3], -6.56%; in experiment [4], -19.4%; in experiment [5], -0.454%.

For `NCCOCCOCCNC(=O)Cc1ccc(Nc2nc(NCc3ccc(F)cc3)nc(NCC3CCCCC3)n2)cc1`, the activity change, negative = inhibition was -2.41% in experiment [1]; 17.1% in experiment [2]; -20.7% in experiment [3]; -37% in experiment [4]; 4.99% in experiment [5].

For the compound `O=C(NCc1c[nH]c2ncccc12)c1ccccc1Cl`, the activity change, negative = inhibition in experiment [1] is -8.76%; in experiment [2] it was -7.09%; in experiment [3], -5.24%; in experiment [4] it was -15.1%; in experiment [5] it was -11.4%.

Consider `CCc1cc2c(cc3n2CC(C)(C(=O)NC2CCCCCC2)N(CCCN(CC)CC)C3=O)s1` (configuration not stated), for which the activity change, negative = inhibition was 5.97% in experiment [1]; 7.41% in experiment [2]; -1.23% in experiment [3]; 0.05% in experiment [4]; 0.588% in experiment [5].

As for `Cc1ccc(Cl)cc1Nc1nn2c(=O)c3ccc(C(=O)NCCCOC(C)C)cc3nc2s1`, the activity change, negative = inhibition was found to be 3.51% in experiment [1]; 0% in experiment [2]; 2.95% in experiment [3]; 6.57% in experiment [4]; 1.93% in experiment [5].

As to `C=CC(=O)Nc1cccc(Oc2nc(Nc3ccc(N4CCN(C)CC4)cc3OC)ncc2Cl)c1`, the activity change, negative = inhibition was -15.9% in experiment [1]; -5.35% in experiment [2]; -24% in experiment [3]; -16.9% in experiment [4]; -4.4% in experiment [5].

With `CN1CCN(C(=O)c2cc3n(n2)CC(C)(C(=O)NCc2ccccc2)N(C)C3=O)CC1` (configuration not stated), the activity change, negative = inhibition in experiment [1] is 1.8%; in experiment [2] it was 0%; in experiment [3], 0.385%; in experiment [4], 5.39%; in experiment [5], 2%.

For the compound `CCOc1ccccc1CN1C(=O)c2nc3ccccc3n2CC1(C)C(=O)NC1CCC(C)CC1` (configuration not stated), the activity change, negative = inhibition in experiment [1] was -0.352%; in experiment [2], 0%; in experiment [3] it was 5.55%; in experiment [4] it was -6.64%; in experiment [5], 0.14%.

For the compound `COc1cccc(Cn2nc3n(C(C)C)c(=O)c4ccc(C(=O)NCC(C)C)cc4n3c2=O)c1`, the activity change, negative = inhibition in experiment [1] is -1.39%; in experiment [2], 2.94%; in experiment [3], 4.35%; in experiment [4], -1.74%; in experiment [5], 2.09%.
